Data published in PubChem BioAssay AID1745853 (National Center for Advancing Translational Sciences (NCATS), 2022).
The other results are listed elsewhere or left out. These are further read-outs of the screen, such as a control signal, another cell line or another target. No call is given for them.

How the values were obtained:
Experiment in all cases: Primary Screen for Target Class Profiling of Small Molecule Inhibitors of Methyltransferases
[1] = molecular target: Glycine N-methyltransferase (Homo sapiens) (UniProt Q14749); details: purified enzyme, MTase-Glo SAH luminescence; measured here: GNMT inhibition; at 40 µM; stronger effect = lower value
Summary of the method: (§1)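 Each enzyme was assayed with SAM and its substrate. SAH formation detected by MTase-Glo luminescence; single-point 40 uM screen[…].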

[2] = molecular target: Guanidinoacetate N-methyltransferase (Homo sapiens) (UniProt Q14353); details: purified enzyme, MTase-Glo SAH luminescence; measured here: GAMT inhibition; at 40 µM; stronger effect = lower value
Summary of the method: as §1

[3] = molecular target: Histamine N-methyltransferase (Homo sapiens) (UniProt P50135); details: purified enzyme, MTase-Glo SAH luminescence; measured here: HNMT inhibition; at 40 µM; stronger effect = lower value
Summary of the method: as §1

[4] = molecular target: Nicotinamide N-methyltransferase (Homo sapiens) (UniProt P40261); details: purified enzyme, MTase-Glo SAH luminescence; measured here: NNMT inhibition; at 40 µM; stronger effect = lower value
Summary of the method: as §1

[5] = molecular target: Phenylethanolamine N-methyltransferase (Homo sapiens) (UniProt P11086); details: purified enzyme, MTase-Glo SAH luminescence; measured here: PNMT inhibition; at 40 µM; stronger effect = lower value
Summary of the method: as §1
On the % scale 0 is the no-effect control and ±100 the full control effect.

| Compound | activity change, negative = inhibition [1] | activity change, negative = inhibition [2] | activity change, negative = inhibition [3] | activity change, negative = inhibition [4] | activity change, negative = inhibition [5] |
| --- | --- | --- | --- | --- | --- |
| Cc1cc2c(cc3n2CC(C)(C(=O)NC2CCCCCCC2)N(CCCN2CCOCC2)C3=O)o1 (stereo unspecified) | 1.31% | 1.61% | 5.38% | -4.33% | 2.55% |
| C[C@@H](O)[C@H]1C(=O)N2C(C(=O)O)=C(S[C@@H]3CN[C@H](CNS(N)(=O)=O)C3)[C@H](C)[C@H]12 | – | -10.3% | – | -20.8% | -2.62% |
| COc1cccc(-n2c(=O)[nH]c3cc(Cl)n(-c4ccc(-c5cccc(OC)c5O)cc4)c3c2=O)c1 | – | -9.02% | – | -35.8% | -12.1% |
| CC12CCC(OC3OC(CO)C(O)C(OC4OC(CO)C(O)C(O)C4O)C3O)CC1=CCC1C2CCC2(C)/C(=C3/COC(=O)C3)CCC12O (stereo unspecified) | 2.56% | 6.46% | 3.12% | -5.62% | 4% |
| Cc1cc(C)cc(NC(=O)Cn2c(=O)oc3cc(S(=O)(=O)N4CCCC4)ccc32)c1 | -11.5% | -1.18% | -5% | -3.41% | -23.7% |
| CCCN1C(=O)c2cc3sc(CC)cc3n2CC1(C)C(=O)NC1CCCCC1 (stereo unspecified) | -5.7% | 0.268% | -0.459% | 3.1% | -2.93% |
| Cc1ccc(Cn2nc3n(CCC(C)C)c(=O)c4ccc(C(=O)NC(C)C)cc4n3c2=O)cc1 | -1.12% | 0.223% | -2.9% | -2.18% | -1.24% |
| Cc1csc2c(N[C@@H](C)CN3CCN(S(=O)(=O)c4ccc(Cl)c(Cl)c4)CC3)ncnc12 | -8.98% | 1.3% | 9.88% | -28.5% | -4.37% |
| CC(C)CNC(=O)c1ccc2c(=O)n(CC(C)C)c3nn(CC(N)=O)c(=O)n3c2c1 | 6.53% | 5.37% | 11.6% | 2.3% | 4.83% |
| CCC(C)NC(=O)c1ccc2c(=O)n(Cc3ccccc3)c3nn(CC(=O)NC(C)(C)C)c(=O)n3c2c1 (stereo unspecified) | -0.053% | 4.05% | 3.73% | 1.76% | -4.67% |
| Cc1ccc([S+](=O)([O-])N2CCCCC23Cc2ccccc2NC3=O)cc1 (stereo unspecified) | -7.19% | -7.18% | -3.01% | -12.1% | -7.7% |
| CC1CCN(C(=O)c2cc3n(n2)CC(C)(C(=O)NCc2ccccc2)N(C)C3=O)CC1 (stereo unspecified) | 6.58% | 0.231% | 8.66% | 1.26% | 5.25% |
| CC1(CO)CC(O)[C@]2(C(=O)O)CCC34CC3(C=CC3[C@]5(C)C(CC[C@]34C)C(C)(CO)[C@@H](O)[C@H](O)[C@@H]5O)C2C1 (stereo partly specified) | 3.54% | 4.33% | 7% | -10.1% | 6.14% |
| CC1(C(=O)NCc2ccc(F)cc2)Cn2c(nc3ccccc32)C(=O)N1Cc1ccc2c(c1)OCO2 (stereo unspecified) | 3.28% | 0.714% | 9.55% | 11.5% | 3.86% |
| Cn1c(=O)n(C)c2cc(S(=O)(=O)Nc3ccc(-c4nnc(-c5ccccc5)o4)c(Cl)c3)ccc21 | -32.3% | 0% | -1.67% | -12.3% | -2.61% |
| COc1cc2nccc(Oc3ccc(NC(=O)Nc4cc(C)on4)c(Cl)c3)c2cc1OC | -2.69% | -0.241% | 0.426% | -37.7% | 0.207% |
| CS(=O)(=O)N(C1CCOCC1)C1CN(C(=O)NCc2ccccc2)C1 | -1.35% | -0.726% | 2.17% | -2.58% | -0.237% |
| Cc1cc(CNC(=O)c2cc(C(C)C)n3ncnc3n2)c2[nH]c(C)c(C)c2c1 | -5.2% | -2.61% | -1.38% | -4.58% | -2.96% |
| C=C1CC2C3(C)C(OC(C)=O)CC(=O)OC(C)(C)C3C(O)C(OC(C)=O)C2(C)C2C(=O)OC(C)C(=O)C12C (stereo unspecified) | -0.073% | -3.79% | 6.12% | -14.6% | -4.02% |

| Compound | activity change, negative = inhibition [1] | activity change, negative = inhibition [2] | activity change, negative = inhibition [3] | activity change, negative = inhibition [4] | activity change, negative = inhibition [5] |
| --- | --- | --- | --- | --- | --- |
| Cc1c(Cl)cccc1N1C(=O)CSc2c(c3ccccc3n2C)C1C(=O)NCc1ccccc1 (stereo unspecified) | 11.3% | 1.06% | 6.28% | 11.4% | 10.3% |
| N[C@H]1CCCN(C(=O)c2cnc(C34CC5CC(CC(C5)C3)C4)[nH]c2=O)C1 | -6.41% | -9.87% | -5.97% | -20.5% | -12.7% |
| CCCCCCCCCCCCCCC[C@H](O)[C@H](N)CO | -1.94% | 4% | -0.1% | -11.6% | -1.66% |
| CNC(=O)c1cc(C)nc2onc(C3CCN(C(=O)NC4CCCC4)C3)c12 (stereo unspecified) | -3.58% | -4.64% | -1.58% | -9.47% | -1.32% |
| C[N+](C)(C)CCO | 2.18% | 14.8% | 0.276% | -1.25% | 4.21% |
| CCC(C)NC(=O)c1ccc2c(=O)n(CC(C)C)c3nn(Cc4cccc(C)c4)c(=O)n3c2c1 (stereo unspecified) | 1.41% | 3.31% | 8.18% | -6.11% | 2.44% |
| Cc1ccsc1C(=O)C1CCCN(Cc2ccc(OC(C)C)c(CO)c2)C1 (stereo unspecified) | -4.29% | 0.967% | -3.45% | -4.05% | 3.14% |
| CC(C)CNC(=O)c1ccc2c(=O)n(C)c3nn(CC(=O)NCc4ccccc4)c(=O)n3c2c1 | -0.813% | 4.58% | 2.34% | -0.917% | 0.204% |
| O=C(NCc1ccccc1)N1CCCC(Cn2cnc3cccnc32)C1 (stereo unspecified) | -4.31% | 0.345% | -1.92% | -5.94% | -4.1% |
| CNC(=O)c1cccc(-c2ccc3c(N4CCOC[C@@H]4C)nc(N4CCOC[C@@H]4C)nc3n2)c1 | -16.4% | -6.43% | -5.71% | -34.4% | -2.14% |
| O=C(CCc1conc1-c1ccc(F)cc1)NC1CCCCC1 | -3.42% | -6.48% | -1.13% | -10.7% | -4.37% |
| COc1ccc(N2CCN(CCCNC(=O)Cn3c(=O)c4cccn4c4c(C)ccnc43)CC2)cc1 | -13.8% | -10.4% | -5.65% | -26% | -8.88% |
| Cc1cc2[nH]c(=O)[nH]c2cc1S(=O)(=O)NC1CCCCC1 | 14% | 1.49% | 11.5% | 1.11% | 1.03% |
| COc1ccc2c(=O)n(CC(=O)N(C)Cc3cc(C)no3)ccc2c1OC | -0.651% | 2.29% | 0.961% | -4.55% | -10.1% |
| O=C(Nc1ccccc1)N1CCC(N2CC3CCCN3C2=O)CC1 (stereo unspecified) | -8.91% | -7.7% | -5.21% | -12.5% | -8.55% |
| CN(C)CCOC(C)(c1ccccc1)c1ccccn1 (stereo unspecified) | 5.01% | 13% | 6.46% | -0.329% | 8.86% |
| COc1ccc(CN2C(=O)c3ccc(-c4ccco4)n3CC2(C)C(=O)NC2CCC(C)CC2)cc1 (stereo unspecified) | 0.61% | 1.19% | 4.73% | -0.462% | -0.025% |
| COc1cccc(N2CCN(C3=Nc4c(F)cccc4[C@H](CC(=O)O)N3c3cc(C(F)(F)F)ccc3OC)CC2)c1 | 0.494% | 12.4% | 3.27% | -18.8% | 2.59% |
| Cc1ccc(CNC(=O)c2ccc3c(=O)nc4c(-c5cccc(C)c5)n[nH]n4c3c2)cc1 | -14.3% | 3.68% | 0.182% | -5.25% | -5.03% |
